SMILES strings stand for the structures. Results filed as inconclusive are left out. The call rests on the fitted dose curve; in most records, active means well fitted inhibition curve with a large enough effect; inconclusive means small, poorly fitted or top-dose-only effect; inactive means no such curve, though single readings can be large or run the other way. The source holds several records for some structures; these can differ, active in one and inactive in another. The source holds more than one record for some entries. The list is limited to them. The source may hold further records. The values listed for one entry are repeats across runs, samples, wells, individuals or studies. Brackets tell where a record comes from. Letters count within one entry.

For this experiment, the system named is Zika virus NS2B-NS3 protease (linked). Kind of experiment: Optimization screen NINDS Rhodamine qHTS for Zika virus inhibitors: Linked NS2B-NS3 protease assay. The text has this:
Avindra Nath, Ph.D., National Institute of Neurological Disorders and Stroke (NINDS), Bethesda, MD
Radhakrishnan Padmanabhan, Ph.D., Georgetown University (GU), Washington D.C.
Zika Virus causes congenital defects, including microcephaly and is associated with Guillain-Barre syndrome, eningoencephalitis and myelitis in infected adult. […] Using a target-based approach, we hope to establish a screening paradigm to uncover novel, cell-active NS2B-NS3 protease (Zika Virus) specific inhibitors from NCATS' collection of small molecules using qHTS.
Four assay panel was created to identify potential Zika Virus inhibitors. […]
Briefly, 3 microL of enzyme (25 nM final concentration), in assay buffer (10 mM Tris-HCl pH 8.0 with 0.01% Tween 20) were dispensed into a 1,536-well solid-bottom black plate (Greiner Bio One, Monroe, NC). […] Plates were then immediately read on a ViewLux High-throughput CCD imager (PerkinElmer, Waltham, MA) equipped with FITC fluorescence optics (480(20) nm excitation, 540(25) nm emission), then incubated (room temperature, protected from light) for 15 minutes (~15% conversion). The change in fluorescence intensity over the 15-minute reaction period was normalized against no-inhibitor and no-enzyme controls and the resulting percent inhibition data were fitted to a 4-parameter Hill equation. […]
(qHTS replaces the single test concentration by a dilution series.)

As to `CC[C@H](C)[C@H]1O[C@]2(CC[C@@H]1C)C[C@@H]1C[C@@H](C/C=C(\C)[C@@H](O[C@H]3C[C@H](OC)[C@@H](O[C@H]4C[C@H](OC)[C@@H](O)[C@H](C)O4)[C@H](C)O3)[C@@H](C)/C=C/C=C3\CO[C@@H]4[C@H](O)C(C)=C[C@@H](C(=O)O1)[C@]34O)O2`, the Potency result is “inactive [sample A] and active: 27.8 µM [sample B]”.

Values taken from PubChem BioAssay AID1347155 (National Center for Advancing Translational Sciences (NCATS), 2019).
